Laboratory results taken from ChEMBL document CHEMBL4888484, “Replenishing the malaria drug discovery pipeline: Screening and hit evaluation of the MMV Hit Generation Library 1 (HGL1) against asexual blood stage Plasmodium falciparum ,using a nano luciferase reporter read-out” (2022).
The campaign covered roughly 150,000 compounds. About 540 (0.36%) showed an effect of 50% or more. Some of the results follow.

test system: Plasmodium falciparum; assay: Primary screen in NF54 nanoGlo assay, in single point, at 2uM, 72h; a lower Z score goes with more inhibition; type: functional, Erythrocyte; conditions: timepoint 72 hour

Structure (SMILES) | % Inhibition [%] | Z score
Cc1nc(COCC(F)(F)C(F)F)n(-c2ccccc2C(=O)O)n1 | -6 | 1.14
Cc1cnc(COCC(=O)NC(C)(C)Cc2ccc(Br)c(C)c2)o1 | -9 | 1.67
CCOC(=O)N1CCN(C(=O)c2ccc(-c3cncc(OC)c3)cc2)CC1 | -9 | 0.91
O=C(Cc1cccnc1)N1CCC=C(F)C1 | -6 | 0.6
C[C@@]12CN(C(=O)[C@@H]3CCCO3)C[C@@H]1CN(S(=O)(=O)C(F)(F)F)C2 | -4 | 0.57
Cc1c[nH]c(CCN2C[C@@](C)(c3ccccc3)CCC2=O)n1 | -2 | 0.33
O=C(c1ccc(C2CCCCC2)cc1)N1CCC[C@H](c2nnn[nH]2)C1 | 1 | -0.11
c1nc(C2CCN(Cc3ccc4c(c3)OCCO4)CC2)no1 | -16 | 1.52
O=C1CCCC[C@@H](C(=O)NCCN2CCOCC2)N1 | 5 | -0.89
NC(=O)C1CCCCC1Nc1ncc(Br)cn1 (stereo not drawn) | -12 | 1.58
CC1(C)C[C@@H](CNC(=O)c2cncnc2C2CC2)CCO1 | -2 | 0.28
CCc1nc2c(c(NC[C@H]3CCOC3)n1)CCN(Cc1ccoc1)CC2 | -10 | 1.23
Cc1c(Br)ccc(=O)n1CCOC[C@H]1CCCO1 | -1 | 0.24
COc1ccc(-c2n[nH]c(=O)[nH]2)c(-n2cccn2)c1 | -17 | 1.86
Cc1cccnc1-c1noc([C@]2(C)CCCO2)n1 | 2 | -0.38
COCC1(c2nc(-c3nccc4ccccc34)no2)CCC1 | 1 | -0.09
COc1ccc(NC(=O)c2ccc(COc3ccc4c(c3)CCC4)cc2)c(OC)c1 | -27 | 3.15
Brc1ccc2[nH]c(CNc3ncccn3)cc2c1 | 0 | 0.04
CN(Cc1ccc(Br)o1)S(C)(=O)=O | -13 | 1.81
Cn1c(CNC(=O)C2CCC2)nc2c1CN(C(=O)Cc1cccc(F)c1)CC2 | -8 | 0.88
COc1cc(CN(C)Cc2nc(C)cs2)ccc1OC[C@@H](O)CN1CCC(O)CC1 | 3 | -0.4

Structure (SMILES) | % Inhibition [%] | Z score
Fc1ccccc1-c1cc(NCc2nnn[nH]2)n2nccc2n1 | -3 | 0.52
CCOC(=O)NC1CCN(Cc2ncc(C)o2)CC1 | -8 | 1.09
CCN(C(=O)c1cccc(OC)c1)[C@H](c1ccc(C)cc1)c1c[nH]c2ccccc12 | 11 | -1.45
COC(=O)Nc1nc(-c2ccccc2)c(-c2nc3ccccc3c(=O)n2-c2ccc(OC)cc2)s1 | 51 | -6.56
CCn1ccnc1CN(C)c1nc(N(C)C)nc(C)c1C | -6 | 1.14
CCc1cnccc1-c1noc(C2CCOCC2)n1 | -5 | 0.55
O=c1[nH]cccc1-c1csc(C2CC3(CC3)C2)n1 | -13 | 2.67
CCC(C)[C@H](NC(=O)N1CCCC1)C(=O)N1CCN(CC(C)O)C(C)C1 (stereo partly drawn) | -8 | 0.87
FC(F)(F)C(c1nc(Nc2nc(N3CCOCC3)nc(N3CCOCC3)n2)nc(C(C(F)(F)F)(C(F)(F)F)C(F)(F)F)n1)(C(F)(F)F)C(F)(F)F | 32 | -4.63
Cc1nc2[nH]nc(N)c2c2c1COC(C)(C)C2 | -16 | 2.01
O=C(c1ccoc1)N1CCCC[C@H]1c1nc(-c2ccncc2)no1 | -14 | 1.48
Cc1ccc2c(c1)Oc1ccccc1C(N1CCN(C(=O)OCc3ccccc3)CC1)=N2 | -6 | 0.82
CCC=C(C)C(=O)NCc1cccc(OCC)c1 | -5 | 0.48
COc1ccccc1CNc1nc2[nH]c3c(c(=O)n2n1)CCCC3 | 8 | -0.7
COc1cc(C(=O)NCC2CCN(CC(F)F)CC2)ncn1 | -5 | 0.84
Cc1cnc([C@H](C)Nc2ncncc2Br)s1 | -5 | 0.62
Cc1ccc(CNC(=O)[C@]2(C)Cn3nc(-c4ccco4)cc3C(=O)N2Cc2ccccc2Cl)cc1 | -15 | 2.39
CCC(O)CNC(C)c1ccc(F)c(Cl)c1 (stereo not drawn) | -11 | 1.34
CN(Cc1ccccc1)C(=O)c1cc(NC(=O)C2CCC2)ccc1N1CCCN(C(=O)C2CCCC2)CC1 | 3 | -0.4
C[C@@H](C(=O)N1CCC(n2c(=O)[nH]c3ccc(F)cc3c2=O)CC1)n1cccn1 | 4 | -0.68
COc1ccc(OC(C)CNC(=O)N2CCCC(C)(O)C2)cc1 (stereo not drawn) | 18 | -2.19

Structure (SMILES) | % Inhibition [%] | Z score
Cc1ncsc1C(=O)N1CCC([C@H](C)N2CCN(C)CC2)CC1 | -4 | 0.54
O=C(NCCS(=O)(=O)C1CC1)c1cnc(OCC2CC2)cn1 | 27 | -3.05
Cc1sc(NC(=O)Cc2cccs2)c(C#N)c1-c1ccc(F)cc1 | -12 | 1.39
COc1cc(OC)c(NC(=O)N2CCN(c3cc(C)nc(N4CCOCC4)n3)CC2)cc1Cl | -12 | 1.93
Cc1nnc2c(NC(=O)Cc3c(F)cccc3Cl)cccn12 | -14 | 2.11
O=C(Cc1cccc2ccccc12)Nc1ccccn1 | -8 | 1.1
COc1ccc(OC)c(Cc2nnc(CCC(=O)NC3CC(C)(C)CC(C)(C)C3)o2)c1 | -14 | 1.27
CCN(CC)C(=O)Nc1ccc(C(F)(F)F)nn1 | -4 | 0.6
Cc1nc(CN(C(=O)c2cc(C3CC3)nc3ccccc23)C(C)C)no1 | -10 | 1.34
Cc1nc2cc(NC(=O)c3cc[n+]([O-])cc3)ccc2o1 | 1 | -0.13
CC(C)CN(CC(O)c1ccccc1)S(=O)(=O)c1cnn(C2CCOC2)c1 (stereo not drawn) | -10 | 1.91
CCn1cc(CN(CCO)C(=O)c2cc(C)ccc2C2CC2)cn1 | -18 | 2.18
COc1cc(C(=O)NCCC2=CC[C@H]3C[C@@H]2C3(C)C)ccc1OC1CCN(C)CC1 | 1 | -0.21
CC(C)[C@H](NS(=O)(=O)CC1CCOCC1)c1ccccc1N | -3 | 0.43
COc1cccc2c(C)nc(NC3=NCN(Cc4ccc5c(c4)OCO5)CN3)nc12 | -12 | 1.24
Cc1cc2ncc3c(n2n1)CCN(S(=O)(=O)c1cccc(Cl)c1C)C3 | -5 | 0.7
Cc1ccc2oc(CN3CCN(C(=O)Nc4ccc(Br)cc4)CC3)nc2c1 | -21 | 1.88
Cc1csc(C(C)CNC(=O)NC(C)C2CCOC2)n1 (stereo not drawn) | 3 | -0.4
Cc1cc(=O)c(OCC(=O)Nc2ncc[nH]2)cn1C | 1 | -0.06
CC(=O)NC[C@H]1CCCN(c2nc3nonc3nc2N2CCCCC2)C1 | -13 | 1.75
Cc1c(C(=O)N[C@@H]2CCC[C@@H]2n2ccnc2)nnn1-c1cnn(C)c1 | -1 | 0.14

Structure (SMILES) | % Inhibition [%] | Z score
CC(C)C/C=C(\CN1C[C@H](N)[C@@H](O)C1)c1ccccc1 | -6 | 1.17
CC[C@H](NC(=O)c1cc(C)nc(C)n1)C1CC(O)C1 (stereo partly drawn) | -20 | 2.68
CCCc1cc(-c2ccnn2C(C)C)nc(C)n1 | -17 | 1.63
Cc1cccc(CNS(=O)(=O)c2cc(C(=O)N3CCCCC3)cs2)c1 | -11 | 1.11
O=C1CCC2(CCN1)CCN(C/C=C/c1ccccc1)CC2 | -19 | 1.86
CCn1nc(C(=O)N2CC[C@H](Oc3ccc(C)cn3)C2)cc1C1CC1 | 3 | -0.48
CN1N=C(C(=O)N2CCc3ccccc32)CCC1=O | -2 | 0.37
Cc1cccc(C(=O)N[C@@H](C)C(=O)Nc2nc3c(s2)CCC3)c1 | -4 | 0.67
N#Cc1cccc(-c2ccnc(N[C@H]3CO[C@H]4[C@@H]3OC[C@@H]4NC(=O)c3ccc(C(F)(F)F)cc3)n2)c1 | -7 | 1.07
Cc1n[nH]c(C)c1-c1cccc(C(=O)N(C)C)n1 | -5 | 0.69
Cc1n[nH]c(=O)nc1N1CCC2(CC1)OCCO2 | 4 | -0.55
COc1ccc(C[C@@H]2NC(=O)[C@H](C(C)C)NC2=O)cc1 | -5 | 0.61
CN(Cc1ccon1)C(=O)C1CCC(NC(=O)CC2CCCCC2)CC1 (stereo not drawn) | -2 | 0.38
CC(C)[C@H](NC(=O)Nc1cc(Cl)ccc1Cl)c1ncc[nH]1 | -5 | 0.62
Cc1c(S(=O)(=O)N2CCC[C@@](CO)(CN(C)C)C2)sc2ccc(C#N)cc12 | 1 | -0.17
NC(=O)C1(NC(=O)c2ccc3nc(-c4ccc(F)cc4)cn3c2)CCCC1 | -24 | 2.53
Cc1c(-c2ccc(C(=O)NC[C@H]3CCCO3)cc2)cnn1C(F)F | 9 | -1.18
O=C(CN1C(=O)[C@@H]2CCCN2C(=O)c2ccccc21)Nc1ccc(F)c(F)c1F | -15 | 1.71
C[C@H]1CCc2ccccc2N1Cc1ccc(C(=O)O)o1 | -8 | 0.79
O=C(Cn1ncccc1=O)N1CCC(Oc2cccc3cccnc23)CC1 | -14 | 2.68
CC(C)c1cc(C(=O)N2CCCCCCC2)n(C)n1 | -6 | 1.24
